The whole screen tested about 420,000 compounds, of which about 64,000 (15%) were called active. The inconclusive results got no clear call from the source; some entries with a clear call stand among them for comparison. The call rests on the fitted dose curve; in most records, active means well fitted inhibition curve with a large enough effect; inconclusive means small, poorly fitted or top-dose-only effect; inactive means flat fitted curve, though single readings scatter. No potency is given beside an inconclusive call; the fits are too rough.
Assay: qHTS for Inhibitors of human tyrosyl-DNA phosphodiesterase 1 (TDP1): qHTS in cells in absence of CPT; further: nearly all actives have a fitted effect of over 55% in size
Settings: DT40 Tdp1-/- hTDP1 cells, no CPT, ATP luminescence, 48 h; activity change, negative = growth inhibition: at 46.2 µM (top of the series) unless noted
Summary of the method: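 Readout: luminescence from CellTiter-Glo after 30 min in the dark at RT. Cells: DT40 Tdp1-/- with stable hTDP1, 400/well. Exposure: compounds alone, ≥48 hr, 37 °C.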
On the % scale 0 is the no-effect control and ±100 the full control effect; potency means the concentration at half of the fitted maximal effect; tags describe the fitted curve by direction and shape.

Row | Compound | Potency | activity change, negative = growth inhibition
1 | CC(Sc1nc(N)c2c3c(sc2n1)CSC(C)(C)C3)C(=O)Nc1ccccc1 (centres undefined) | active: 13 µM | 
2 | CCN(c1ccccc1)S(=O)(=O)c1ccc(OC)c(N=N/C(C(=O)Nc2ccccc2)=C(/C)O)c1 | inconclusive [inhibitor, partial curve] | 
3 | CCc1ccc(S(=O)(=O)N(C(=O)Oc2ccccc2)c2ccc3oc(C)c(C(=O)OC)c3c2)cc1 | active: 2.91 µM | 
4 | COc1ccc(C(=O)NC(CC(=O)O)c2cc([N+](=O)[O-])ccc2Cl)c(SC)c1 (centres undefined) | inactive | 
5 | O=C(NN=Cc1ccccc1)c1ccccc1 |  | inconclusive: -29.6% [inhibitor]
6 | Cc1cc(C)cc(N(CCC(=O)Nc2nnc(C)s2)S(=O)(=O)c2ccc(Cl)cc2)c1 | active: 23.1 µM | 
7 | C[C@@H](C(=O)N=c1sc2ccccc2n1C)N1C(=O)C2CC=CCC2C1=O (some centres undefined) | inconclusive [inhibitor, single point] | 
8 | COc1cc2[nH]c(=O)n(CCCCCC(=O)NC3CCCC3)c(=O)c2cc1OC | inconclusive [inhibitor, single point] | 
9 | CCOC(=O)c1c(NC(=O)CSc2nnc(-c3cccnc3)o2)sc(C(C)=O)c1C | active: 20.6 µM | 
10 | CCCCOc1cccc(C(=O)N(Cc2cccs2)c2ccc(OC)cc2)c1 | active: 6.51 µM | 
11 | CCN(CC)C(=O)CSc1nc2ccc(NC(=O)CSc3nnc(COc4ccccc4C)n3C)cc2s1 | inconclusive [inhibitor, single point] | 
12 | O=C1C=CC(=O)N1Cc1ccccc1 | active: 2.31 µM | 
13 | COc1cccc(-n2c(-c3cccc(F)c3)nc3c(cnn3-c3ccc(C)cc3)c2=O)c1 | inconclusive [inhibitor, single point] | 
14 | Cc1nc(N2CCOCC2)c2c(C)c(C(=O)Nc3ccccc3C(F)(F)F)sc2n1 |  | inconclusive: -34.4% [inhibitor]
15 | O=C(NCc1ccc(F)cc1)c1cc(-c2ccccn2)nc2ccc(S(=O)(=O)N3CCOCC3)cc12 | inconclusive [inhibitor, single point] | 
16 | O=C(NCCc1c[nH]c2ccccc12)C1CCN(S(=O)(=O)c2ccccc2F)CC1 | inconclusive [inhibitor, single point] | 
17 | COc1ccc(N2C=C3C(=O)C(C)(OC(=O)CCc4ccccc4)C(=O)C=C3C=C2c2ccc(C#N)cc2)cc1 (centres undefined) | inconclusive [inhibitor, single point] | 
18 | Cc1ccccc1C(=O)Oc1cc(N)n(S(=O)(=O)c2ccccc2)n1 | inactive | 
19 | CCOc1ccc(-c2c(=O)n(OCc3ccccn3)c3ccccc3[n+]2[O-])cc1 | active: 11.6 µM | 

Source: PubChem BioAssay AID686978 (National Center for Advancing Translational Sciences (NCATS), 2013)
